The target of test [1] is T1, eCFP-KRT9 (human (cDNA from HEK293T mRNA)) (UniProt P35527).
T1 sequence: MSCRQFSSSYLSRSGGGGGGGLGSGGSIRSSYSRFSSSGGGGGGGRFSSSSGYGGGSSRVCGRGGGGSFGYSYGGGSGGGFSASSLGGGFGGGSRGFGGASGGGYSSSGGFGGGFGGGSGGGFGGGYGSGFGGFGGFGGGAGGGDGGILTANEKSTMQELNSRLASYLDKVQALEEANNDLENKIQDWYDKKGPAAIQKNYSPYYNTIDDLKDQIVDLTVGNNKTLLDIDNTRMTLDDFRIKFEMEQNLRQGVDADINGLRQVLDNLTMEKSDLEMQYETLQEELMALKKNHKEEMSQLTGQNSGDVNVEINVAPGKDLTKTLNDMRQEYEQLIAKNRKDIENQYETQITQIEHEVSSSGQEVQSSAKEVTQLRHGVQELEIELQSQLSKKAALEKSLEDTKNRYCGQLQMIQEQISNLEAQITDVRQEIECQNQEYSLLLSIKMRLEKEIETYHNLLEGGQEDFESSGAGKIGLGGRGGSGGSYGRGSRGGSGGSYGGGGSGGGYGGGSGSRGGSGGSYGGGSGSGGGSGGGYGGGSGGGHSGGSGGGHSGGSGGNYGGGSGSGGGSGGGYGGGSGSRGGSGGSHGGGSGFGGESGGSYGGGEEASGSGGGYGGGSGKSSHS
Put plainly: FRET or BRET; FRET by bleaching of the eYFP acceptor in Hela cells transfected for 24 hours and fixed in 4% paraformaldehyde; Olympus FV 3000 confocal; eCFP intensity in the bleached area.

Amino acid sequences for entries named in this document (tags omitted). A change or cut given only in a name is not applied to a line headed by its entry.
UniProt P0DOE5: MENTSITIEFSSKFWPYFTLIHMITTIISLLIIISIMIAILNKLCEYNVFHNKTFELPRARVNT

The target of test [2] is T2, GFP-202–302 of KRT9 (human (cDNA from HEK293T mRNA)) (UniProt P35527).
T2 sequence: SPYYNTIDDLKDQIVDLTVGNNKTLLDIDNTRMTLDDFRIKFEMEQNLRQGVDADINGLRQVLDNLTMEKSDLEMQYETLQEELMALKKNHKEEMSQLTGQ
Put plainly: co-IP; […] (20 mM Tris-HCl pH 7.5, 100 mM NaCl, 0.1 mM EDTA, 0.05% Tween-20); […].

Test [3] concerns the target T3, KRT9-Myc (human (cDNA from HEK293T mRNA)) (UniProt P35527).
T3 sequence: T1 sequence
The description is as above.

The target of test [4] is T4, KRT9-Myc △202–302 (human (cDNA from HEK293T mRNA)) (UniProt P35527).
T4 sequence: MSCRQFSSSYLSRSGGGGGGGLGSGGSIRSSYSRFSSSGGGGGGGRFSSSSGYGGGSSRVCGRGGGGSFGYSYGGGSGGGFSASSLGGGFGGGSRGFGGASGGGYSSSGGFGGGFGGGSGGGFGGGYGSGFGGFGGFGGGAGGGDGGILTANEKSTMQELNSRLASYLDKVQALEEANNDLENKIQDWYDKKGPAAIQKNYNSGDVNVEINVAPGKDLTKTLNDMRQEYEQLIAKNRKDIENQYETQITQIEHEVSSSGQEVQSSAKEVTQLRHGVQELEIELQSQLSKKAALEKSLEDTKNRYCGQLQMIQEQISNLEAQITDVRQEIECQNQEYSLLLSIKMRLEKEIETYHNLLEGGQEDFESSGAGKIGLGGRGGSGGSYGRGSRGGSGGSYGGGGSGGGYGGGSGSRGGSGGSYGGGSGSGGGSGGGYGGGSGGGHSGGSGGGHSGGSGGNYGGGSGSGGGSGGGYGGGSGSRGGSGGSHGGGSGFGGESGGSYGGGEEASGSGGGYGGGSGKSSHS
The description is as above.

Test [5] has as its target T5, GFP-202–466 of KRT9 (human (cDNA from HEK293T mRNA)) (UniProt P35527).
T5 sequence: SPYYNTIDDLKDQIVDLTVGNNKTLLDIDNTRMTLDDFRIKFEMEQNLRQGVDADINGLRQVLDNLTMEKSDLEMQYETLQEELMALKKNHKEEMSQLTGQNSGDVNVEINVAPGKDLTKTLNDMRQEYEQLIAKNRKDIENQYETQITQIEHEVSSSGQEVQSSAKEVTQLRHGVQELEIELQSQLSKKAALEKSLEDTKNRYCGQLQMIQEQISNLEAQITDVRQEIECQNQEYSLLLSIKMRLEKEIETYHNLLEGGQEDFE
The test is described as above.

Test [6] has as its target T6, KRT9-Myc △319–466 (human (cDNA from HEK293T mRNA)) (UniProt P35527).
T6 sequence: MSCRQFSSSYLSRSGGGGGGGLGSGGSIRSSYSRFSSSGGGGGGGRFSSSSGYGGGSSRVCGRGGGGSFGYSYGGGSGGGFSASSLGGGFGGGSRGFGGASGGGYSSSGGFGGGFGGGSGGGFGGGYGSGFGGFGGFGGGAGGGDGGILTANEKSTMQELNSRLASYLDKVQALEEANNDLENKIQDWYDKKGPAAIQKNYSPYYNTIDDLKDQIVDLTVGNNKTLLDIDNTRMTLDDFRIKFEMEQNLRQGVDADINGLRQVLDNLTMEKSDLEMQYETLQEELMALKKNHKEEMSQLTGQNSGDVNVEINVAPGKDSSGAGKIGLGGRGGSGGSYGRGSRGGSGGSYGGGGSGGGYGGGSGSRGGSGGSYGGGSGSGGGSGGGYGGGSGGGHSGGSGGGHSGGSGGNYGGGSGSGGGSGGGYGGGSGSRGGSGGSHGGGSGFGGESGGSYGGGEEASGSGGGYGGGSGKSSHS
The description is as above.

Test [7] concerns the target T7, KRT9-Myc △151–191 (human (cDNA from HEK293T mRNA)) (UniProt P35527).
T7 sequence: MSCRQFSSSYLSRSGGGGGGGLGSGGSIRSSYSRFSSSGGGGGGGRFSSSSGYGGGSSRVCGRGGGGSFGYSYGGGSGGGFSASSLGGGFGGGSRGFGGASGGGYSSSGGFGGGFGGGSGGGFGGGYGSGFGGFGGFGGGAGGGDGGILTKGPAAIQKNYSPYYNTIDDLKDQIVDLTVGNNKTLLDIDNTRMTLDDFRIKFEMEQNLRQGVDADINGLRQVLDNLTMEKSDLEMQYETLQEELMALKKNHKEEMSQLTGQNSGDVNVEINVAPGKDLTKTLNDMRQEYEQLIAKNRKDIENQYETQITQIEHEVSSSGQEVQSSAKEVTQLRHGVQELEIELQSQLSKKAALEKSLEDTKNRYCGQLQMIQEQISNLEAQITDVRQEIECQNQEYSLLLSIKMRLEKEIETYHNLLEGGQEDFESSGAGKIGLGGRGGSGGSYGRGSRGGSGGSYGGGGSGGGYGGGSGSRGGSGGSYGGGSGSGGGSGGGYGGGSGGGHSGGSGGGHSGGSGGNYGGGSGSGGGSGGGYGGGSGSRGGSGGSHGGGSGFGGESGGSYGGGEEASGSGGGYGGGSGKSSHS
Described as above.

For test [8], the target named is SH-HA (in A549 cells) (respiratory syncytial virus (strain of the cDNA not stated)) (UniProt P0DOE5). Put plainly: co-IP.

Substitutions are numbered along the chain they refer to. Names and notes keep the numbering of the source. No constants are given. Whether binding was seen depends on the method and setting. In cells and extracts the contact can be indirect. Some results given as binding are weak or reduced against the parent protein; the word gives no strength. For some of these results: Tags and fused reporters may be left off the sequences shown.

On to eYFP-SH (from UniProt P0DOE5 2-64), for which, in test [1], the binding entry is listed as “no binding”.

B1: GBP5-Flag (protein, UniProt Q96PP8 1-586)
chain: MALEIHMSDPMCLIENFNEQLKVNQEALEILSAITQPVVVVAIVGLYRTGKSYLMNKLAGKNKGFSVASTVQSHTKGIWIWCVPHPNWPNHTLVLLDTEGLGDVEKADNKNDIQIFALALLLSSTFVYNTVNKIDQGAIDLLHNVTELTDLLKARNSPDLDRVEDPADSASFFPDLVWTLRDFCLGLEIDGQLVTPDEYLENSLRPKQGSDQRVQNFNLPRLCIQKFFPKKKCFIFDLPAHQKKLAQLETLPDDELEPEFVQQVTEFCSYIFSHSMTKTLPGGIMVNGSRLKNLVLTYVNAISSGDLPCIENAVLALAQRENSAAVQKAIAHYDQQMGQKVQLPMETLQELLDLHRTSEREAIEVFMKNSFKDVDQSFQKELETLLDAKQNDICKRNLEASSDYCSALLKDIFGPLEEAVKQGIYSKPGGHNLFIQKTEELKAKYYREPRKGIQAEEVLQKYLKSKESVSHAILQTDQALTETEKKKKEAQVKAEAEKAEAQRLAAIQRQNEQMMQERERLHQEQVRQMEIAKQNWLAEQQKMQEQQMQEQAAQLSTTFQAQNRSLLSELQHAQRTVNNDDPCVLL
For the molecule B1, the binding result is “no binding” in test [2]; “binds” in test [3]; “binds weakly” in test [4]; “binds” in test [5]; “binds” in test [6]; “binds” in test [7].

B2: endogenous GBP5 (protein, UniProt Q96PP8 1-586)
chain: B1 chain
As to B2, the binding entry in test [8] was “binds”.

B3: eYFP-GBP5 (protein, UniProt Q96PP8 1-586)
chain: B1 chain
B3: in test [1], the binding entry is reported as “binds”.

B4: GBP5-Flag C583A (protein, UniProt Q96PP8 1-586)
chain: B1 chain with C583A
As to B4, in test [3], the binding result is “no binding”.

These data come from publication PMC11852966.
